Reference: the RNAGym collection of RNA variant scans (doi:10.1073/pnas.2313332121)
Variants at the floor of the assay are shown more often than the library holds them.

B1: TPR 5TU (parent)
chain: GGAUCUUCUCGAUCUAACAAAAAAGACAAAUCUGCCACAAAGCUUGAGAGCAUCUUCGGAUGCAGAGGCGGCAGCCUUCGGUGGCGCGAUAGCGCCAACGUUCUCAACUAUGACACGCAAAACGCGUGCUCCGUUGAAUGGAGUUUAUCAUG

Variants of: B1
Test: polymerase ribozyme fitness, log enrichment relative to wild type (log ratio); higher = more active; in vitro selection for triplet polymerase activity
Procedure, shortened: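 Streptavidin-bead capture of gel-excised extended constructs, followed by RT-PCR, closed a single triplicate in vitro selection round. That round began by annealing PCR-built, transcribed mutant libraries of each subunit of a heterodimeric triplet polymerase ribozyme with a biotinylated primer, the partner subunit and triplets, then incubating them frozen at −7 °C. After Illumina sequencing of inputs and outputs, genotypes needed ≥10 input reads and ≥1 read per output. Fitness is the base-2 logarithm of genotype enrichment over wild-type enrichment, using inverse-variance-weighted replicate averages.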

Row | Variant | polymerase ribozyme fitness (log ratio)
1 | GGAUCUUCUCGAUCUAACAAAAAAGACAAAUCUGCCACAAAGCUUGAGAGCAUCUUCGGAUGCAGAGGCGGCAGCCUUCGGUGGCGCGAUAGCGUAAACGUUCUCAACUAUGACACGCAAAACGCGUGCUCCGUUGAAUGGAGUUUAUCAUG | -1.02
2 | GGAUCUUCUCGAUCUAACAAAAAAGACAAAUCUGCCACAAAGCUUGAGAGCAUCUUCGGAUGCAGAGGCGGCAGCCUUCGGUGGCGCGAUAGCGUCAACGUUCUCAACUAUGACACGUAAAACGCGUGCUCCGUUGAAUGGAGUUUAUCAUG | -1.09
3 | GGAUCUUCUCGAUCUAACAAAAAAGACAAAUCUGCCACAAAGCUUGAGAGCAUCUUCGGAUGCAGAGGCGGCAGCCUUCGGUGGCGCGAUAGCGUUAACGUUCUCAACUAUGACACGUAAAACGAGUGGUCCGUUGAAUGGAGUUUAUCAUG | ≤ -4.2
4 | GGAUCUUCUCGAUCUAACAAAAAAGACAAAUCUGCCACAAAGCUUGAGAGCAUCUUCGGAUGCAGAGGCGGCAGCCUUCGGUGGCGCGAUAGCUCCAACGUUCUCAACUAUGACACGCAAAAGGCGUGCUCCGUUGAAUGAAGUUCAUCAUG | -2.83
5 | GGAUCUUCUCGAUCUAACAAAAAAGACAAAUCUGCCACAAAGCUUGAGAGCAUCUUCGGAUGCAGAGGCGGCAGCCUUCGGUGGCGCGAUAGCGUCAACGUUCUCAACUAUGACAGGCAAAACGCGUGCUCCUUUGAAUGGAGUUUAUCAUG | ≤ -4.2
6 | GGAUCUUCUCGAUCUAACAAAAAAGACAAAUCUGCCACAAAGCUUGAGAGCAUCUUCGGAUGCAGAGGCGGCAGCCUUCGGUGGCGCGAUAGCGUCAACGUUCUCAACUAUGACACGCAAAACGCGUGCUCAGUUGAAUGGAGUUUAUCAUG | -2.32
7 | GGAUCUUCUCGAUCUAACAAAAAAGACAAAUCUGCCACAAAGCUUGAGAGCAUCUUCGGAUGCAGAGGCGGCAGCCUUCGGUGGCGCGAUAGCGUCAACGUUCGCAAGUAUGACACGCAAAACGCGUGCUCCGUUGAAUGGAGUUUAUCAUG | ≤ -4.2
8 | GGAUCUUCUCGAUCUAACAAAAAAGACAAAUCUGCCACAAAGCUUGAGAGCAUCUUCGGAUGCAGAGGCGGCAGCCUUCGGUGGCGCGAUAGCGUCAACGUUCUAAACUAUGACAAGCAAAACGCGUGCUCCGUUGAAUGGAGUUUAUCAUG | ≤ -4.2
9 | GGAUCUUCUCGAUCUAACAAAAAAGACAAAUCUGCCACAAAGCUUGAGAGCAUCUUCGGAUGCAGAGGCGGCAGCCUUCGGUGGCGCGAUAGCCCCAACGUUCUCCACUAUGACAUGCAAAACGCGUGCUCCGUUGAAUGGAGUUUAUCAUG | -3.12
10 | GGAUCUUCUCGAUCUAACAAAAAAGACAAAUCUGCCACAAAGCUUGAGAGCAUCUUCGGAUGCAGAGGCGGCAGCCUUCGGUGGCGCGAUAGCCCCAACGUUCUCAACUAUGACACGCAAAACGCGUGCUCCGUAGAAUGAAGUUUAUCAUG | -2.22
11 | GGAUCUUCUCGAUCUAACAAAAAAGACAAAUCUGCCACAAAGCUUGAGAGCAUCUUCGGAUGCAGAGGCGGCAGCCUUCGGUGGCGCGAUAGCUCCAACGUUCUCAACUAUGACACGCAAAACGCGUGCUCCGUUGAAUGGAGUUUAUCAAG | ≤ -4.2
12 | GGAUCUUCUCGAUCUAACAAAAAAGACAAAUCUGCCACAAAGCUUGAGAGCAUCUUCGGAUGCAGAGGCGGCAGCCUUCGGUGGCGCGAUAGCUCCAACGUUCUCAACUAUGACACGCAAAACGCGUGCUCCGUUGAAUGGAGUUUAUCAGG | ≤ -4.2
13 | GGAUCUUCUCGAUCUAACAAAAAAGACAAAUCUGCCACAAAGCUUGAGAGCAUCUUCGGAUGCAGAGGCGGCAGCCUUCGGUGGCGCGAUAGCGCAAUCGUUGUCAACAAUGACACGCAAUACGCGUGCUCCGUUGAAUGGAGUUUAUCAUG | ≤ -4.2
14 | GGAUCUUCUCGAUCUAACAAAAAAGACAAAUCUGCCACAAAGCUUGAGAGCAUCUUCGGAUGCAGAGGCGGCAGCCUUCGGUGGCGCGAUAGCGUCAAAGUUCUCAACUAUGACACUCAAAACGCGUGCUCCGUUGAAUGGAGUUUAACAUG | ≤ -4.2
15 | GGAUCUUCUCGAUCUAACAAAAAAGACAAAUCUGCCACAAAGCUUGAGAGCAUCUUCGGAUGCAGAGGCGGCAGCCUUCGGUGGCGCGAUAGCGUCAACGUUCUCAACUAUGACACGCAAAUCGCGUGCUCCGUUGAAUGGAGUUGAUCAAG | ≤ -4.2
16 | GGAUCUUCUCGAUCUAACAAAAAAGACAAAUCUGCCACAAAGCUUGAGAGCAUCUUCGGAUGCAGAGGCGGCAGCCUUCGGUGGCGCGAUAGCGGCAACGUUCUCAACUAUGGCACGCAAAACGCGCGCUCCGUGGAAUGGAGUUCAUCUUG | ≤ -4.2
17 | GGAUCUUCUCGAUCUAACAAAAAAGACAAAUCUGCCACAAAGCUUGAGAGCAUCUUCGGAUGCAGAGGCGGCAGCCUUCGGUGGCGCGAUAGCGUCAACGUUCUCAACUAUGACACGCAAAACCCGUGCUCCGUUGAAUGGAGUUUAUCAUG | -0.723
18 | GGAUCUUCUCGAUCUAACAAAAAAGACAAAUCUGCCACAAAGCUUGAGAGCAUCUUCGGAUGCAGAGGCGGCAGCCUUCGGUGGCGCGAUAGCGUCAAGGUUCUCAACUAUGACACGCAAAAUGCAUGCUCCGUGGAAUGGACUUUAUAAUG | ≤ -4.2
19 | GGAUCUUCUCGAUCUAACAAAAAAGACAAAUCUGCCACAAAGCUUGAGAGCAUCUUCGGAUGCAGAGGCGGCAGCCUUCGGUGGCGCGAUAGCUCCAACGUUCUCAACUAUGACAGGCAAAACGCGUGCUCCGUUGAAUGGAGUUUAUCAUG | -0.502
